Measured values as given in the RNAGym collection of RNA variant scans (doi:10.1093/nar/gkz1192).
Read counts are not given, so values of variants with three or more changes are uncertain.

B1: CPEB3 Ribozyme (parent)
chain: UAACAGGGGGCCACAGCAGAAGCGUUCACGUCGCAGCCCCUGUCAGAUUCUGGUGAAUCUGCGAAUUCUGCUGUAUAUCUC

Variants of: B1
Assay: self-cleavage, relative activity (ratio to wild type); higher = more cleavage; in vitro, sequencing
How it was run: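 Libraries of CPEB3 self-cleaving ribozyme mutants came from rounds of error-prone PCR and carried barcodes, which DNA sequencing matched to variants. In vitro transcription used T7 RNA polymerase at 37°C for 5 hours, with a further 15 min in DNase I before EDTA stopped the reaction; the ribozymes cleaved during both steps. The RNA was reverse transcribed with template switching and sequenced on Illumina. Relative activity is the cleaved/total read fraction of a variant divided by that of the unmutated ribozyme, averaged over three batches with at least 5 reads.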

| Variant | self-cleavage |
| --- | --- |
| UAACAGGGGGCCCCAGCAGAAGCGUUCACGACGCAGCCCCUGUCAGAUUCUGGUGAAUCUGCGAAUUCUGCUGUAUGUCUC [A13C U31A A77G] | 0.48 |
| UAACAGGGGGCCGCGGCAGAAGCGUUCACGUCGCAGCUCCAGUCAGAUUCUGGUGAAUCUGCGAAUUCUGCUGUAUAUCUC [A13G A15G C38U U41A] | 0.08 |
| UAACAGGGGGCCGCAGCCGAAGCGUUCACGUCGCUGCCCCUGUCAGAUUCUGGUGAAUCUGCGAAGUCUGCUGUAUUUCUC [A13G A18C A35U U66G A77U] | 0.19 |
| UAACAGGGGGCCCCAGCAGAAGCAUUCACGUCGCAGACCCUGUCAGAUUCUGGAGAAUCUGCGAAUUCUGCUGUAUAUCUC [A13C G24A C37A U54A] | 0.1 |
| UAACAGGGGGCCCCAGCAGAAGCGUUCACGUCGCAGCCCCUGCCAGAUUCUGGCGAAUCUGCGAAUUCUGCUGUACAUCUC [A13C U43C U54C U76C] | 0.28 |
| UAACAGGGGGCCCCAGCAGAAACGCUCUCGUCGCGGCCCCUGUCAGAUUCUGGUGAAUCUGCGAAUUCUGGUGUAUAUCAC [A13C G22A U25C A28U A35G C71G U80A] | 0.06 |
| UAACAGGGGGCCGCGGCAGAAGCGUUCACGUCGCAGCCCCUGACAGAUUCUGGUGAAUCUGCGAAUUCUGCUGUAUAUCUC [A13G A15G U43A] | 0.37 |
| UAACAGGGGGCCCCAGCACAAGCGUUCACGUCGCAGCCCCUGUCAGAUUCUGGUGAAUCUGCGAAUUCUGCUGUAUAUCCC [A13C G19C U80C] | 0.18 |
| UAACAGGGGGCCCCAGCAGAAGCGUUCACGUCGCAGCCCCAGUCAGAUUCUGGCGACUCUGCGAAUUCUGCUGUAUAUCUC [A13C U41A U54C A57C] | 0.72 |
| UAACAGGGGGCCGCUGCAGAAGCGUUCGCGUCGCGGCCCACGUCAGGUUCUGGUGAAUCUGCGAAUUCUGCUGUAUAUCUC [A13G A15U A28G A35G C40A U41C A47G] | 0 |
| UAACAGGGGGCCCCAGCAGAAGCGUUCACGUCGCAGCCCCUGUCAGAUUCUGGUGAAUCUGCGGAUUCUGCUGUUUAUCUC [A13C A64G A75U] | 0.99 |
| UAACAGGGGGCCCCAGCAGAAGAGUUCACGUCGCAGCCCCUGUCAGACUCUGGUGAAUCUGCGAAUUCUGCUGUAUAUCUC [A13C C23A U48C] | 0.07 |
| UAACAGGGGGCCCCAGCAGAAGCGUUCACGUCGCAGCCCCUGCCAGUUUCUGGGGAAUCUGCGAAUUCUGCUGUAUAUCUC [A13C U43C A47U U54G] | 0.14 |
| UAACAGGGGGCCCCAGCAGAAGCGUUCACGUCGCAGCCCCUGUCAGAUUCUGGUGAAUCUGUGAAUUCUGCUAUAUAUCUC [A13C C62U G73A] | 0.17 |
| UAACAGGGGGCCCCAGCAGAAGCGUUCACGUCGCAGCCCCUGUCAGAUUCCGGUGAAUCUGCGAAUCCAGCUGUAUAUCUC [A13C U51C U67C U69A] | 0.2 |
| UAACAGGGGGCCCCAGCAGAAGCGUUCACGUCGCAGCCCCUGUCAGGUUCUGGUGAAUCUGCGAGCUCUGCUGUAUAUCUC [A13C A47G A65G U66C] | 0.23 |
| UAACAGGGGGCCCCAGCAGAAGCGUUCACGUCGCAGCCCCAGUCAGAUUCUGGUGAAUCUGCGGAUUCUGCUGUAUAUCUC [A13C U41A A64G] | 0.07 |

| Variant | self-cleavage |
| --- | --- |
| UAACAGGGGGCCCCAGCAGAAGCUUUCACGUCCCAGCCCCAGUCCGAUUCUGGUGAAUCUGCGAAUUCUGCUGUAUAUCCC [A13C G24U G33C U41A A45C U80C] | 0.07 |
| UAACAGGGGGCCGCUGCAGAAGCGAUCACGUCGCAGCCCCUGUCAGAUUCUGGUGAAUCUGCGAGUUCUGCUGUAUAUCUC [A13G A15U U25A A65G] | 0.06 |
| UAACAGGGGGCCCCAGUAGAAGCGUUCUCGUCGCAGCCCCUGCCAGAUUCUGGUGAAUAUGCGAGUUCUGCUGUAUAUCUC [A13C C17U A28U U43C C59A A65G] | 0.15 |
| UAACAGGGGGCCGCUGCAGAAGUGUCCACGUCGCAGCCCCUGUCAGAUUCUGGUGAAUCUGCGAGUUCUGCUGUAUAUCUC [A13G A15U C23U U26C A65G] | 0.23 |
| UAACAGGGGGCCCAAGCAGAAGCGUUCACGUCGCGGCCCCUGUCAGAUUCUGGUGAAUCUGCGAAUUCUGCUGUGUAUCUC [A13C C14A A35G A75G] | 1.47 |
| UAACAGGGGGCCCCAGUAGAAGCGUUCACGUCGCAGCCCCUGUCAGAUUCUUGUGAAUCUGCGGAUUCUGCUGUAUAUCUC [A13C C17U G52U A64G] | 0.36 |
| UAACAGGGGGCCGCGGCAGAAGCGAUCACGUCGCAGCCCCUGACAGAUCCUGGUGAAUCUGCGAAUUCUGCGGUAUAUCUC [A13G A15G U25A U43A U49C U72G] | 0.1 |
| UAACAGGGGGCCCCAGCAGAAGCGUUCACGUCGCAGCCCCCGUCGGGUUCUGGUGUAUCUGCGAAUUCUGCUGUAUACCUC [A13C U41C A45G A47G A56U U78C] | 0.24 |
| UAACAGGGGGCCCCAGUAGAAGCGUUCACGUCGCAGCCCCUGUCGGAUUCUGGUGAAUCUGCGAAUUCAGCUGUAUAUCUC [A13C C17U A45G U69A] | 0.22 |
| UAACAGGGGGCCGCGGCAGAAGCGUUCACGUCGCAGCCCCUGUCAGAUUCUAGUGAAUCUGCGAAUUCUGCUGUACAUCUC [A13G A15G G52A U76C] | 0.18 |
| UAACAGGGGGCCCCAGCAGAAGCGUUCACGUCGCAGCCUCUGUCAGUUUCUGGUGAUUCUGCGAAUUCUGCUGUAUAUCUC [A13C C39U A47U A57U] | 0.05 |
| UAACAGGGGGCCGCUGCAGAGGCGUUCACGUCGCAGCUCCUGUCAGAUUCUGGUGCAUCUGCGAAUUCUGCUGUAUAUCUC [A13G A15U A21G C38U A56C] | 0.07 |
| UAACAGGGGGCCCCAGCAGAAGCGUUCACGCCGCAGCCCCUGUCAGGUUCUGGCGAAUCCGCGAGUUCAGCUGUAUAUCUC [A13C U31C A47G U54C U60C A65G U69A] | 0.17 |
| UAACAGGGGGCCCCAGCAUAAGCGUUCACGUCGCAGCCCCUGUCCGAUUCUGGCGAAUCUGCGAAUUCUGCUGUAUAUCAC [A13C G19U A45C U54C U80A] | 0.13 |
| UAACAGGGGGCCCCAGCAGAAGCGUUCACGUCGCAGCCCCUGUCAGACUCUGGUGAAUCUGCGCAUUCUGCUGUAUAUCUC [A13C U48C A64C] | 0.14 |
| UAACAGGGGGCCGCUGCAGAGGCGUUCACGUCGCAGCCCCUGUCGGAUUCUGGUGAAUCUGCGAAUUCUGCUGUAUACCUC [A13G A15U A21G A45G U78C] | 0.06 |
| UAACAGGGGGCCGCAGCGGGAGCGUUCACGUCGCAGCCCCCGCCAGAUUCUGGUGAAUCUGCGAGUUCUGCUGUAUAUCAC [A13G A18G A20G U41C U43C A65G U80A] | 0 |
